Data reported in PubChem BioAssay AID651820 (National Center for Advancing Translational Sciences (NCATS), 2012).
Where “and” joins values, the source holds several entries; their conditions need not be identical. Equal entries are not always repeated. Among all 340,000 compounds or so, about 12,000 (3.5%) were called active. Inconclusive means that the source gave no clear call. Such entries were picked first, then a sample of the others. Calls come from the whole dose curve; as a rule, active = well fitted inhibition curve with a large enough effect; inconclusive = small, poorly fitted or top-dose-only effect, or another doubt; inactive = no such curve, though single readings can be large or run the other way. Potencies of inconclusive entries are doubtful fits and often do not repeat.

Test: qHTS Assay for Inhibitors of Hepatitis C Virus (HCV)
Conditions: Huh7.5.1 HCVcc-Cre (HCVcc is cell-culture hepatitis C virus) infection, luciferase reporter, 44 h; activity change, negative = inhibition: at 41.8 µM (top of the series) unless noted
In short: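 Infectious HCV cell culture screen: compound-treated cells (1,000/well, pre-plated 4 h) are infected with HCVcc-Cre at roughly 0.5 moi and grown 44 h. Infection is quantified by luciferase signal after 15 min substrate incubation at room temperature.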
% is set by controls: 0 for no effect and ±100 for the full control effect; potency is the fitted concentration of half-maximal effect; tags give direction and shape of the fitted curve.

Structure (SMILES) | Potency | activity change, negative = inhibition
CN(CC(=O)Nc1ccc(F)c(F)c1)S(=O)(=O)c1cccc2cccnc12 | inconclusive: 31.6 µM [inhibitor, single point] | –
Cc1ccc(C)c(OCCCCCn2ccnc2)c1 | inconclusive: 12.6 µM [inhibitor, single point] | –
c1ccc(-n2ncc3c(NCc4cccnc4)ncnc32)cc1 | inconclusive: 31.6 µM [inhibitor, single point] | –
COC(=O)CCCC(=O)NC1CC(C)(C)Cc2c1cnn2-c1ccc(C)cc1 (centres undefined) | – | inactive: 24.8%
COCCn1c(Cc2ccccc2)nnc1SCC(=O)Nc1ccccc1 | – | inactive: 2.16%
CC(C)CNC(=S)NC1CC2CCC(C1)N2Cc1ccccc1 (centres undefined) | – | inactive: 4.46%
O=C(Nc1ccccc1)Nc1ncc([N+](=O)[O-])s1 | inconclusive: 14.1 µM [inhibitor, single point] | –
N#Cc1c2n(c3c(=O)n(Cc4ccccc4)cnc13)CCCC2 | inconclusive: 31.6 µM [inhibitor, single point] | –
CCN(CC)S(=O)(=O)c1ccc(OC)c(NC(=O)C(C)Oc2ccc3c(C)cc(=O)oc3c2)c1 (centres undefined) | inconclusive: 22.4 µM [inhibitor, single point] | –
CCc1nnc2n1N=C(c1ccc(-c3cc(Cl)ccc3Cl)o1)CS2 | – | inactive: -21.8%
COCCN1C(=O)c2oc3c(C)cc(C)cc3c(=O)c2C1c1cccc(O)c1 (centres undefined) | inconclusive: 11.2 µM [inhibitor, single point] | –
CCn1c(=O)cc(SCC(=O)Nc2ccc3c(c2)OCCO3)c2ccccc21 | inconclusive: 5.62 µM [inhibitor, partial curve] | –
Cc1ccc(NC(=O)/C=C/c2ccc([N+](=O)[O-])s2)cc1 | inconclusive: 3.16 µM [inhibitor, full curve] | –
COc1cccc(NC(=O)C2CCN(S(=O)(=O)c3ccc4c(c3)NC(=O)C(C)S4)CC2)c1 (centres undefined) | inconclusive: 11.2 µM [inhibitor, single point] | –
CCOC(=O)C1=C(C)NC(C)=C(C(=O)OCC)C1C(=O)OC1CCOC1=O (centres undefined) | inactive | –
O=C(C1CCN(Cc2cn[nH]c2-c2ccc(F)cc2F)CC1)N1CCOCC1 | – | inactive: 30.7%
O=C(Nc1ccc(O)c2c(=O)cc(-c3cccc(Cl)c3)oc12)c1ccc(F)cc1 | inconclusive: 31.6 µM [inhibitor, single point] | –
CN1C(=O)c2cccc(NC(=O)C3CCCCC3)c2C1=O | – | inactive: 4.1%
Cc1ccc(Nc2c([N+](=O)[O-])cc(C(=O)N3CC(=O)Nc4ccccc43)cc2[N+](=O)[O-])c(C)c1 | inconclusive: 10 µM [inhibitor, partial curve] | –
Cc1ccc(OCC(=O)Nc2ccc(C)c(F)c2)c([N+](=O)[O-])n1 | inconclusive: 0.708 µM [inhibitor, full curve, poor fit] | –
C[C@@H]1C[C@H]2[C@@H]3C[C@H](F)C4=CC(=O)C=C[C@]4(C)[C@@]3(F)[C@@H](O)C[C@]2(C)[C@@]1(O)C(=O)COC(=O)C(C)(C)C | inactive | –
CC(=O)c1ccc(NC(=O)C(C)Oc2ccc(N(C)S(=O)(=O)c3ccc(C)cc3)cc2)cc1 (centres undefined) | active: 12.6 µM | –
CC(C)(C)Nc1nc(-c2ccccn2)nc2ccccc12 | active: 4.47 µM | –

Structure (SMILES) | Potency | activity change, negative = inhibition
CCCn1c(=O)c(C(=O)NCCc2ccc(OC)c(OC)c2)c(O)c2ccccc21 | inconclusive: 11.2 µM [inhibitor, single point] | –
N=C(CC1CC(=O)NC(=O)C1)C1=C(O)CCCC1=O | – | inactive: 10.5%
CCOc1ccc2nc(SCC(=O)Nc3cc4c(cc3C(C)=O)OCO4)[nH]c2c1 | inconclusive: 31.6 µM [inhibitor, single point] | –
O=C(CNS(=O)(=O)c1ccc(C(=O)N2CCCCC2)cc1)N1CCCCC1 | inconclusive: 4.47 µM [inhibitor, full curve, poor fit] | –
COc1cc(CNc2ccc(N3CCN(C(C)=O)CC3)cc2)ccc1OCc1ccccc1 | inconclusive: 31.6 µM [inhibitor, single point] | –
C/C=C/c1ccc(OCC(=O)Nc2cc(OC)c(OC)c(OC)c2)c(OC)c1 | inconclusive: 31.6 µM [inhibitor, single point] | –
COc1cccc(Cn2cccc(NC(=O)NCc3ccccc3)c2=O)c1 | inconclusive: 11.2 µM [inhibitor, partial curve, poor fit] | –
CC(C)(C)c1ccc(Oc2ccc(N)cc2)cc1 | active: 3.55 µM | –
O=C(N/N=C/CCc1ccccc1)C1CCCCC1 | – | inactive: 20.2%
CCOC(=O)c1c(NC(=O)CS(=O)(=O)c2cn(CC)c3ccccc23)sc2c1CCCC2 | inconclusive: 31.6 µM [inhibitor, single point] | –
O=C1CN(C(=O)c2ccc(Cl)c([N+](=O)[O-])c2)c2ccccc2N1 | inconclusive: 31.6 µM [inhibitor, single point] | –
Cc1ccc(NC(=O)CN2C(=O)CCSc3ccc(S(=O)(=O)N4CCCC4)cc32)cc1 | inconclusive: 5.62 µM [inhibitor, single point] | –
COc1cccc(C(=O)C2CCCN(C(=O)c3ccccc3Cl)C2)c1 (centres undefined) | inconclusive: 22.4 µM [inhibitor, single point] | –
COc1cccc(CN(C)C(=O)CCC(=O)c2cc(Br)ccc2OC)c1 | inconclusive: 10 µM [inhibitor, partial curve] | –
CCC(C)c1ccccc1NC(=O)CN1CCN(C/C=C/c2ccccc2)CC1 (centres undefined) | – | inactive: -11.5%
Cc1nn(-c2ccccc2)c(/N=C/c2ccc(O)cc2)c1-c1ccccc1 | – | inactive: -7.22%
Cc1cc(OC(=O)c2ccc(S(=O)(=O)N3CCOCC3)cc2)c([N+](=O)[O-])c(=O)[nH]1 | – | inactive: -0.418%
CSc1ccccc1C(=O)Nc1cccc([N+](=O)[O-])c1 | – | inactive: -6.85%
O=c1oc2ccc(Br)cc2cc1S(=O)(=O)c1ccc(F)cc1 | inconclusive: 1.78 µM [inhibitor, full curve] | –
COc1ccc(S(=O)(=O)N2CCN(C(=O)c3ccc([N+](=O)[O-])o3)CC2)cc1 | inconclusive: 31.6 µM [inhibitor, single point] | –
COc1ccc(C)cc1N(C(=O)c1ccco1)C(C(=O)NC1CCCC1)c1cc(OC)c(OC)c(OC)c1 (centres undefined) | – | inactive: 4.43%
COc1ccc(C2=CN(Cc3ccccc3)C(c3ccccc3)CC2=O)cc1 (centres undefined) | inconclusive: 0.562 µM [inhibitor, full curve] | –
CN1CCN(S(=O)(=O)c2cccc(C(=O)N3CCN(c4ccccc4)CC3)c2)CC1 | – | inactive: -1.76%

Structure (SMILES) | Potency | activity change, negative = inhibition
O=C(Nc1cccc(-c2cnc3ccccc3n2)c1)c1ccccc1 | inconclusive: 31.6 µM [inhibitor, single point] | –
O=C(NCCCN1CCOCC1)c1cc2c(s1)CSC2 | inconclusive: 5.01 µM [inhibitor, single point] | –
Cn1c2ccccc2c2cc(/C=N/NC(=O)c3ccc(N)cc3)ccc21 | active: 11.2 µM | –
COc1ccc(N2CCN(C(=O)COC(=O)/C=C/c3ccc(OC(F)F)cc3)CC2)cc1 | inconclusive: 31.6 µM [inhibitor, single point] | –
COc1ccc(C(=O)/C=C/c2ccc(N(C)C)cc2)c(OC)c1 | inconclusive: 1 µM [inhibitor, full curve, poor fit] | –
COc1ccc(OC)c(-c2csc(NC(=O)c3ccccc3F)n2)c1 | inconclusive: 8.91 µM [inhibitor, partial curve] | –
Cc1ccc(Nc2nc(N)nc(CSc3nncn3C)n2)cc1 | – | inactive: 14.3%
O=C(COC(=O)C1(c2cccc(F)c2)CCCC1)NCc1ccc2c(c1)OCO2 | inconclusive: 10 µM [inhibitor, partial curve, poor fit] | –
COc1ccc(OC)c(S(=O)(=O)N2CCC(C(=O)Nc3cccc(C(F)(F)F)c3)CC2)c1 | inconclusive: 31.6 µM [inhibitor, single point] and inconclusive: 10 µM [inhibitor, partial curve] | –
CCOC(=O)C1=C(CC)Nc2ccccc2N=C1N | inconclusive: 31.6 µM [inhibitor, single point] | –
O=C(CSC1=NCCN1)NC(c1ccccc1)c1ccccc1 | active: 10 µM | –
Cc1oc(-c2ccc(Cl)cc2)nc1CN1CCC(C(=O)NCc2cccs2)CC1 | inconclusive: 11.2 µM [inhibitor, partial curve] | –
O=C1CCSc2ccc(Cl)cc2N1Cc1ccccc1 | – | inactive: 20%
Cc1ccc(SCc2cn3c(C)csc3n2)cc1 | – | inactive: -0.53%
CC(=O)Nc1ccc(Sc2ccc([N+](=O)[O-])o2)cc1 | inconclusive: 22.4 µM [inhibitor, single point] | –
Cc1ccc(CNC(=O)CN(C(=O)C2(C)CC(=O)N=C3C=CC=CN32)c2ccccc2F)cc1 (centres undefined) | – | inactive: 26.1%
Clc1ccc2nc(-c3ccc(Br)s3)cn2c1 | inconclusive: 1.12 µM [inhibitor, full curve] | –
CCOc1ccc(N(CC(=O)Nc2cccc(Br)c2)S(C)(=O)=O)cc1 | inconclusive: 31.6 µM [inhibitor, single point] | –
O=C(NCc1ccc2c(c1)OCO2)c1ccc(COc2cccc(Cl)c2)o1 | inconclusive: 10 µM [inhibitor, partial curve] | –
Cc1cccc(C)c1OCC(=O)Nc1ccncc1 | inconclusive: 14.1 µM [inhibitor, single point] | –
Cc1ccc(C)c(OCc2cc(C(=O)N3CCN(c4ccccc4C)CC3C)no2)c1 (centres undefined) | inconclusive: 10 µM [inhibitor, partial curve] | –
O=C(OCN1C(=O)c2ccccc2C1=O)C1CCCCC1 | – | inactive: 13.1%
Cn1cc(C2CC(c3ccccc3)=NN2C(=O)c2ccccc2)c2ccccc21 (centres undefined) | inconclusive: 31.6 µM [inhibitor, single point] | –
